Test results taken from PubChem BioAssay AID1963576 (National Center for Advancing Translational Sciences (NCATS), 2024).
Hit rate of the full screen: of about 46,000 compounds, about 60 (0.1%) were called active. Roughly 3% stayed inconclusive and do not appear here. Calls come from the whole dose curve; as a rule, active = well fitted inhibition curve with a large enough effect; inconclusive = small, poorly fitted or top-dose-only effect; inactive = no such curve, though single readings can be large or run the other way. This is one part of the list.

Assay: Primary qHTS assay for Inhibitors of ovarian cancer metastasis using an organotypic tumor microenvironment (TME) model.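 For activity change, negative = inhibition: plate controls were DMSO wells for no effect and tomatine positive control wells for full effect.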 Note: nearly all actives have a fitted effect of over 65% in size.
Details: SKOV3ip1-GFP adhesion/invasion on 3D omental model, fluorescence; series mostly up to 45.8 µM; activity change, negative = inhibition: at the top concentration
Procedure, shortened: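 qHTS, 4-pt dose (0.36-46 umol/L); SKOV3ip1-GFP, 1,200 cells/well, no FBS; primary omental fibroblast/mesothelial co-culture 48 h pre-grown; 2 h RT + 16 h 37 C; PBS wash, 4% PFA; GFP count 488/509 nm.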

Activity change, negative = inhibition, inactive:
COc1cccc(C(=O)NCc2ccc3c(c2)CCN3C(=O)c2ccncc2)c1 26.6%
COc1ccc(-n2c3c(c(=O)[nH]c2=O)C(NC(=O)c2ccccc2Cl)(C(F)(F)F)C(=O)N3)cc1 (stereo unspecified) 13.8%
CCCCCN1C(C(=O)c2ccccc2)=C(NC(=O)c2ccc(OC)cc2)c2ccccc2S1(=O)=O 5.03%
COc1ccc(NC(=O)c2ccc(-c3nc(CSc4ccc(C)cc4)c(C)o3)cc2)cc1Cl 1.25%
COc1ccccc1C(=O)Oc1c(Sc2ccccc2)c(C)nn1C(C)(C)C -4.91%
Cc1ccc(NC(=O)c2cc(S(=O)(=O)N(C)C3CCCCC3)ccc2F)cc1C -0.898%
COc1ccc(-c2c3c(=O)n(C)c(=O)n(C)c3c3n2-c2ccccc2NC3c2ccc(OC)cc2)cc1 (stereo unspecified) 1.98%
CCC(=O)N1CCc2cc(S(=O)(=O)NC(C(=O)NCCc3ccccc3)C(C)C)ccc21 (stereo unspecified) 4.3%
Cc1cc(C)c(NC(=O)C(C)n2c(=O)c(C(F)(F)F)nc3ccccc32)c(C)c1 (stereo unspecified) 0.82%
Cc1cccc(-n2ncc(C(=O)N3CCN(C4CCCCC4)CC3)c2C2CCN(C(=O)OC(C)(C)C)CC2)c1 -10.1%
Cc1cc(C)cc(OCC(=O)Nc2nc3c(s2)CC(C(C)(C)C)CC3)c1 (stereo unspecified) -7.21%
CCOc1ccc(NC(=O)CSC2=Nc3ccccc3C3=NC(CCC(=O)NCc4ccccc4)C(=O)N23)cc1 (stereo unspecified) -2.94%
Cc1ccc(CNC(=O)c2ccc3c(c2)nc(C)n3-c2cccc(F)c2)cc1 -5.58%
Cc1c(Cl)cccc1NC(=O)c1cccc(NC(=O)N2CCSc3ncccc32)c1 -1.94%
CCCCOc1ccc(-c2nn(-c3ccccc3)cc2C2NC(=O)NC(C)=C2C(=O)OCC)cc1 (stereo unspecified) -0.836%
Cc1cc(C(F)(F)F)n2nc(-c3ccc(Br)cc3)cc2n1 4.06%
C[C@]12CC[C@H](O)CC1=CCC1C2CC[C@]2(C)C(n3cnc4ccccc43)=CCC12 (stereo partly specified) 20.5%
O=C(NCCc1ccccc1)c1cnc2sc(N3CCCCCC3)nn2c1=O -3.98%
O=C(c1cc2ccccc2oc1=O)N1CCN(c2ccc(Cl)cc2)CC1 3.76%
Cc1cc2oc(C(=O)Nc3ccc(S(N)(=O)=O)cc3)cc(=O)c2cc1C -3.12%
COc1ccccc1N1CCN(c2ncnc3c2cnn3-c2cc(Cl)ccc2C)CC1 -4.81%
Cc1ccc(CSc2nc3ccc(NC(=O)COc4ccccc4)cc3s2)cc1 -5.59%
CCOC(=O)c1ccc(N2C(=O)c3[nH]nc(-c4ccc(C)cc4)c3C2c2cccc(F)c2)cc1 (stereo unspecified) -34.5%
COc1ccc(OC)c(CNC(=O)c2cc3c(-c4ccc(OC)c(OC)c4)nn(C)c3s2)c1 28%
Cc1ccc(NC(=O)c2ccc(-c3cccc(Cl)c3C)o2)cc1 -2.19%
CCc1ccc2nc(N(CCN(CC)CC)C(=O)c3ccco3)sc2c1 -7.26%
O=C1OC(C(=O)Nc2cccc(Br)c2)Cc2ccccc21 (stereo unspecified) -3.95%
Cc1cccc(-n2ncc(C(=O)N3CCN(c4ccc(Cl)cc4)CC3)c2C2CCN(C(=O)OC(C)(C)C)CC2)c1 -4.14%
COc1ccc(CNC(=O)Cn2c(SCC(=O)Nc3ccc(OC)cc3)nc3ccccc32)cc1 -1.77%
Cn1nc(C(=O)NCc2ccc(Cl)cc2)c2c1-c1ccccc1S(=O)(=O)C2 -5.64%
Cc1ccc(C)c(NC(=O)CN2CCCN(Cc3cccc(Cl)c3)S2(=O)=O)c1 -4.38%
Cc1cccc(N2C(=O)N(CC(=O)C(C)(C)C)c3ccccc3S2(=O)=O)c1C -14.1%
CN(C)S(=O)(=O)N(CC(=O)NCCSCc1ccccc1)c1ccccc1 14.4%
CCc1ccc(Sc2cc(C(=O)NCc3ccccc3OC)c3ccccc3n2)cc1 -8.36%
CCn1c(=O)cc(SCC(=O)NCc2ccc(F)cc2Cl)c2ccccc21 5.02%
CCOc1ccc(N2CC(NC(=O)C(=O)c3c[nH]c4ccccc34)CC2=O)cc1 (stereo unspecified) -4.31%
COc1ccc(C2NC(=O)N(C)C3=C2C(=O)N(c2cccc(Cl)c2)C3)cc1 (stereo unspecified) -6.71%
COC(=O)c1ccc(OCC2c3cc(OC)c(OC)cc3CCN2C(=O)Cc2ccc(OC)cc2)cc1 (stereo unspecified) -4.9%
Cc1nn2c(-c3cccc(NC(=O)c4ccccc4)c3)nnc2c2ccccc12 2.1%
COc1ccc(CNC(=O)c2ccc(N3CCCC3)c(NC(=O)NCc3ccc(C)cc3)c2)cc1 0.888%
CCc1ccccc1NC(=O)CN(Cc1ccccc1)S(=O)(=O)c1ccc(Br)cc1 0.13%
O=C(Nc1ccc(F)cc1)c1oc2ccccc2c1NC(=O)C12CC3CC(CC(C3)C1)C2 -17.9%
Cc1cccc(OC(=O)CSc2nnc(CNC(=O)c3ccccc3)o2)c1C -4.26%
COc1ccc(CCNC(=O)c2ccc3c(c2)N(Cc2c(F)cccc2Cl)C(=O)CS3)cc1OC 2.76%
CCOC(=O)c1c(C)oc2ccc(N(C(=O)Oc3ccccc3)S(=O)(=O)c3ccc(CC)cc3)cc12 -4.6%
CC(C)c1ccc(OCC(=O)NC(Cc2c[nH]c3ccccc23)C(=O)O)cc1 (stereo unspecified) -3.73%
O=C(Cc1ccccc1)N(Cc1cccnc1)c1nc2c(F)cc(F)cc2s1 2.91%
COc1ccc(-c2cc(C)no2)cc1S(=O)(=O)N1CCOc2ccccc21 9.18%
COc1ccc(-c2cn3c(n2)sc2cc(C(=O)Nc4ccc(C)c(C)c4)ccc23)cc1 -8.59%
COc1ccc(C2CC(=O)c3cc(-c4nc(-c5ccc(Cl)cc5)c(C)s4)c(=O)[nH]c3C2)cc1 (stereo unspecified) 6.87%
Cc1ccc2c(c1)-c1cc(C)nn1C(c1cc(Br)ccc1O)N2 (stereo unspecified) -16.5%
CCOC(=O)c1c(C)[nH]c(C)c1S(=O)(=O)N1CCC(C(=O)N2CCN(c3ccccc3F)CC2)CC1 -4.01%
COc1cccc(NC(=O)CSC2=Nc3ccccc3C3=NC(CC(=O)NC4CCCCC4)C(=O)N23)c1 (stereo unspecified) -4.97%
CCc1nnc(SCc2cc(C)ccc2C)c2cc3sc(C)cc3n12 -10.6%
COc1ccc(NC(=O)C(C)n2nc(-c3ccc(C)c(C)c3)ccc2=O)cc1OC (stereo unspecified) 1.61%
CC(C)(C)c1ccc(C(=O)NCC(c2cccs2)S(=O)(=O)c2ccccc2)cc1 (stereo unspecified) -13.8%
CC(=O)c1ccc(N2CCN(c3ccc(NC(=O)c4ccc(F)cc4)cc3C(=O)O)CC2)cc1 3.32%
Cc1cc(C)c2c(=O)cc(C(=O)Nc3ccccc3C(F)(F)F)oc2c1 -3.25%
CCc1ccc(CNC(=O)c2ccc(NC(=O)N3CC(C)Sc4ccccc43)cc2)cc1 (stereo unspecified) 2.21%
COC(=O)c1ccc2c(=O)n(CCCCCC(=O)NCc3ccc(Cl)cc3)c(=O)[nH]c2c1 37.4%
Cc1ccc2ncc(C(=O)Nc3ccc(F)cc3F)c(=O)n2c1 14%
O=S(=O)(Nc1nc2n(n1)C(c1ccc(F)cc1)C=C(c1ccccc1)N2)c1ccccc1 (stereo unspecified) 6.93%
CCNC(=O)[C@H]1O[C@@H](n2cnc3c(N)nc(NCCc4ccc(CCC(=O)O)cc4)nc32)[C@H](O)[C@H]1O -13.8%
O=C(Nc1cc(-c2nc3ccccc3o2)ccc1Cl)c1ccc(N2CCCCC2)c([N+](=O)[O-])c1 -12.7%
CN(C(=O)c1cc2nc(-c3ccco3)cc(C(F)(F)F)n2n1)c1ccc(OC(F)(F)Cl)cc1 6.11%
CCOC(=O)c1c(-c2ccc(Br)cc2)csc1NC(=O)c1ccc(F)cc1 -0.336%
COC(=O)c1ccccc1NC(=O)CSc1nc2ccccc2nc1Cc1ccccc1OC -6.45%
CC(C)OCCCNC(=O)c1ccc2c(c1)NC(=O)c1ccccc1S2 3.29%
Cc1ccc(-c2nc(SCCOc3ccccc3C)n3[nH]c(=O)cc3n2)cc1 0.842%
Cc1ccc(NC(=O)Cn2cc(S(=O)(=O)c3ccc(C)cc3)c(=O)c3cc4c(cc32)OCO4)cc1 9.35%
COc1ccc(C2c3c(n(C)c4ccccc34)C(=O)N2CC(=O)Nc2ccc(C)c(Cl)c2)cc1 (stereo unspecified) 31.3%
CC1=C(c2ccc(C)c(C)c2)S(=O)(=O)N=C1N1CCC(C(=O)N2CCC(C(N)=O)CC2)CC1 -0.637%
O=C1COc2cc(S(=O)(=O)NCc3ccco3)c(Cl)cc2N1 -23.5%

outcome, inactive:
CCN(c1cccc(C)c1)S(=O)(=O)c1ccc(N2CCCCS2(=O)=O)cc1
COc1ccc(CNc2nc(SCc3ccc(Cl)cc3)nc3ccccc23)cc1
COc1ccc(OC)c2sc(NC(=O)c3ccc(S(=O)(=O)N4CCCC4)cc3)nc12
CCOC(=O)CC(NC(=O)CCc1c(C)nc2c(c(C)nn2-c2ccc(C)c(C)c2)c1C)c1ccc(C)cc1 (stereo unspecified)
CC(NC(=O)c1ccc2c(c1)CCN2S(C)(=O)=O)c1ccccc1 (stereo unspecified)
Cc1ccc(C(=O)N2c3ccc(C)cc3C(C)(c3ccccc3)CC2(C)C)cc1 (stereo unspecified)
COc1ccc(OCC(=O)NCc2ccc3c(c2)CCN3C(=O)c2ccccc2)cc1
CCc1cccc(NC(=O)CN2C(=O)COc3ccc(S(=O)(=O)Nc4ccccc4)cc32)c1
Cc1ccc(OCc2nc(-c3ccc(C(=O)N4CCN(c5ccccc5F)CC4)cc3)oc2C)cc1
COc1ccc(Cl)cc1NC(=O)c1cc(S(=O)(=O)NC2CCCCCC2)ccc1F
CCCCCn1c(=O)[nH]c2cc(C(=O)Nc3cc(C)cc(C)c3)ccc2c1=O
Cc1cc(OC(C)C(=O)Nc2c(C(=O)c3ccc(F)cc3)oc3ccccc23)ccc1Cl (stereo unspecified)
Cc1cccc(NC(=O)CSc2cn(CC(=O)N3CCCCCC3)c3ccccc23)c1
CCc1ccc(Sc2cc(C(=O)NCc3cccc(OC)c3)c3ccccc3n2)cc1
O=C(Nc1cc(Cl)cc(Cl)c1)c1ccc(F)c(S(=O)(=O)N2CCc3ccccc32)c1
Cc1cccc(N2CCN(C(=O)CCc3nnc4n(CC(C)C)c(=O)c5ccccc5n34)CC2)c1C
Cc1cc(NC(=O)CCS(=O)(=O)c2cc3c4c(c2)CCN4C(=O)CC3)ccc1Br
Cc1ccc(CSc2cn(CC(=O)N3CCCC3)c3ccccc23)cc1
